The target in one experiment is T1, human TOP1B (hTOP1B) (Homo sapiens, UniProt P11387).
T1 sequence (P11387 1-765): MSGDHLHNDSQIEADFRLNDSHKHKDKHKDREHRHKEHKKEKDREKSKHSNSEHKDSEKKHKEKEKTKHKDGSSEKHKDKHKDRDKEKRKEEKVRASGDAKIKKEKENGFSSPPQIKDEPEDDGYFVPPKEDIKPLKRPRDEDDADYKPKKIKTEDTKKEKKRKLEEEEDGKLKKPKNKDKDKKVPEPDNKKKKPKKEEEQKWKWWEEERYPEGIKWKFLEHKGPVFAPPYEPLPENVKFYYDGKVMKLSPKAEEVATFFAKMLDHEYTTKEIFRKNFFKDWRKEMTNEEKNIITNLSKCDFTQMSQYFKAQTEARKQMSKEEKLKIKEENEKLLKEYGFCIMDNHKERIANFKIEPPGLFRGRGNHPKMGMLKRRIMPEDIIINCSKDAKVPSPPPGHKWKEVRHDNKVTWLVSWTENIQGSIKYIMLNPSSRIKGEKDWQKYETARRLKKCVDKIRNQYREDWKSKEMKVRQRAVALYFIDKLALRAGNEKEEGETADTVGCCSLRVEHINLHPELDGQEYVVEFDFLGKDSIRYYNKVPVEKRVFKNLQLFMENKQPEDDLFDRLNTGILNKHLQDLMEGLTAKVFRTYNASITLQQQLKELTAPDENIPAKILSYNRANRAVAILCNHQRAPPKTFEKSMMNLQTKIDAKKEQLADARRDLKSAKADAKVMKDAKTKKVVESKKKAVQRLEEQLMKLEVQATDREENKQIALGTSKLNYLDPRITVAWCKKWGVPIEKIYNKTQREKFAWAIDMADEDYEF
Briefly: biochemical. The conditions noted are these: read-out: % Inhibition hTOP1B 15 s.
Usually inhibition stands for how much of the control response was suppressed. In the case of `CCOP(=O)(OCC)c1ccc2nc(-c3ccc(F)c(F)c3)cc(-c3ccccc3)c2c1` [7s, Diethyl (2-(3,4-difluorophenyl)-4-phenylquinolin-6-yl)phosphonate], the inhibition at 100 µM came out at 9%.
With `CCOP(=O)(OCC)c1cccc2c(-c3ccc(F)cc3)cc(-c3ccc(F)c(F)c3)nc12` [7i, Diethyl (2-(3,4-difluorophenyl)-4-(4-fluorophenyl)quinolin-8-yl)phosphonate], the inhibition at 100 µM was 47%.
Still for that read-out and setting: with `Cc1ccc(-c2cc(-c3ccc(F)c(F)c3)nc3c(P(=O)(OC(C)C)OC(C)C)cccc23)cc1` [7q, Diisopropyl (2-(3,4-difluorophenyl)-4-(p-tolyl)quinolin-8-yl)phosphonate] the figure was 51%.
On to `CCOP(=O)(OCC)c1cccc2c(-c3ccccc3)cc(-c3ccc(F)cc3)nc12` [7b, Diethyl (4-Phenyl-2-(fluorophenyl)quinolin-8-il) phosphonate], for which the inhibition at 100 µM was found to be 54%.
Consider `CC(C)OP(=O)(OC(C)C)c1cccc2c(-c3ccccc3)cc(-c3ccc(F)cc3)nc12` [7l, Diisopropyl (2-(4-fluorophenyl)-4-phenylquinolin-8-yl)phosphonate], for which the inhibition at 100 µM came out at 18%.
The same measure, in the same setting: under `CC(C)OP(=O)(OC(C)C)c1cccc2c(-c3ccccc3)cc(-c3ccc(F)c(F)c3)nc12` [7m, Diisopropyl (2-(3,4-difluorophenyl)-4-phenylquinolin-8-yl)phosphonate] stands 26%; under `CCOP(=O)(OCC)c1ccc2nc(-c3ccc(F)cc3)cc(-c3ccc(F)cc3)c2c1` [7t, Diethyl (2,4-bis(4-fluorophenyl)quinolin-6-yl)phosphonate], 21%.
As for `CCOP(=O)(OCC)c1ccc2nc(-c3ccc(F)c(F)c3)cc(-c3ccc(C)cc3)c2c1` [7x, Diethyl (2-(3,4-difluorophenyl)-4-(p-tolyl)quinolin-6-yl)phosphonate], the inhibition at 100 µM was 18%.
Regarding `CCOP(=O)(OCC)c1cccc2c(-c3ccc(C)cc3)cc(-c3ccc(F)cc3)nc12` [7j, Diethyl (2-(4-fluorophenyl)-4-(p-tolyl)quinolin-8-yl)phosphonate], the inhibition at 100 µM amounted to 65%.

Still in this experiment, the particulars now being: read-out: % Inhibition hTOP1B 1 min.
`CCOP(=O)(OCC)c1ccc2nc(-c3ccc(F)c(F)c3)cc(-c3ccccc3)c2c1` [7s, Diethyl (2-(3,4-difluorophenyl)-4-phenylquinolin-6-yl)phosphonate]: the inhibition at 100 µM was found to be 13%.
With `CCOP(=O)(OCC)c1cccc2c(-c3ccc(F)cc3)cc(-c3ccc(F)c(F)c3)nc12` [7i, Diethyl (2-(3,4-difluorophenyl)-4-(4-fluorophenyl)quinolin-8-yl)phosphonate], the inhibition at 100 µM worked out at 37%.
With `Cc1ccc(-c2cc(-c3ccc(F)c(F)c3)nc3c(P(=O)(OC(C)C)OC(C)C)cccc23)cc1` [7q, Diisopropyl (2-(3,4-difluorophenyl)-4-(p-tolyl)quinolin-8-yl)phosphonate], the inhibition at 100 µM turned out to be 35%.
Regarding `CCOP(=O)(OCC)c1cccc2c(-c3ccccc3)cc(-c3ccc(F)cc3)nc12` [7b, Diethyl (4-Phenyl-2-(fluorophenyl)quinolin-8-il) phosphonate], the inhibition at 100 µM amounted to 61%.
The same measure, in the same setting: under `CC(C)OP(=O)(OC(C)C)c1cccc2c(-c3ccccc3)cc(-c3ccc(F)cc3)nc12` [7l, Diisopropyl (2-(4-fluorophenyl)-4-phenylquinolin-8-yl)phosphonate] stands 13%; under `CC(C)OP(=O)(OC(C)C)c1cccc2c(-c3ccccc3)cc(-c3ccc(F)c(F)c3)nc12` [7m, Diisopropyl (2-(3,4-difluorophenyl)-4-phenylquinolin-8-yl)phosphonate], 32%.
Consider `CCOP(=O)(OCC)c1ccc2nc(-c3ccc(F)cc3)cc(-c3ccc(F)cc3)c2c1` [7t, Diethyl (2,4-bis(4-fluorophenyl)quinolin-6-yl)phosphonate], for which the inhibition at 100 µM was determined as 18%.
As for `CCOP(=O)(OCC)c1ccc2nc(-c3ccc(F)c(F)c3)cc(-c3ccc(C)cc3)c2c1` [7x, Diethyl (2-(3,4-difluorophenyl)-4-(p-tolyl)quinolin-6-yl)phosphonate], the inhibition at 100 µM was found to be 25%.
Same read-out and setting: under `CCOP(=O)(OCC)c1cccc2c(-c3ccc(C)cc3)cc(-c3ccc(F)cc3)nc12` [7j, Diethyl (2-(4-fluorophenyl)-4-(p-tolyl)quinolin-8-yl)phosphonate] stands 67%.

Staying with this experiment, now noted: read-out: % Inhibition hTOP1B 3 min.
Turning to `CCOP(=O)(OCC)c1ccc2nc(-c3ccc(F)c(F)c3)cc(-c3ccccc3)c2c1` [7s, Diethyl (2-(3,4-difluorophenyl)-4-phenylquinolin-6-yl)phosphonate], the inhibition at 100 µM worked out at 2%.
The same measure, in the same setting: under `CCOP(=O)(OCC)c1cccc2c(-c3ccc(F)cc3)cc(-c3ccc(F)c(F)c3)nc12` [7i, Diethyl (2-(3,4-difluorophenyl)-4-(4-fluorophenyl)quinolin-8-yl)phosphonate] stands 2%.
On the same count and under the same terms, with `Cc1ccc(-c2cc(-c3ccc(F)c(F)c3)nc3c(P(=O)(OC(C)C)OC(C)C)cccc23)cc1` [7q, Diisopropyl (2-(3,4-difluorophenyl)-4-(p-tolyl)quinolin-8-yl)phosphonate] the figure was 6%; with `CCOP(=O)(OCC)c1cccc2c(-c3ccccc3)cc(-c3ccc(F)cc3)nc12` [7b, Diethyl (4-Phenyl-2-(fluorophenyl)quinolin-8-il) phosphonate], 21%.
As for `CC(C)OP(=O)(OC(C)C)c1cccc2c(-c3ccccc3)cc(-c3ccc(F)cc3)nc12` [7l, Diisopropyl (2-(4-fluorophenyl)-4-phenylquinolin-8-yl)phosphonate], the inhibition at 100 µM was 2%.
With `CC(C)OP(=O)(OC(C)C)c1cccc2c(-c3ccccc3)cc(-c3ccc(F)c(F)c3)nc12` [7m, Diisopropyl (2-(3,4-difluorophenyl)-4-phenylquinolin-8-yl)phosphonate], the inhibition at 100 µM worked out at 3%.
Turning to `CCOP(=O)(OCC)c1ccc2nc(-c3ccc(F)cc3)cc(-c3ccc(F)cc3)c2c1` [7t, Diethyl (2,4-bis(4-fluorophenyl)quinolin-6-yl)phosphonate], the inhibition at 100 µM was determined as 5%.
Take `CCOP(=O)(OCC)c1ccc2nc(-c3ccc(F)c(F)c3)cc(-c3ccc(C)cc3)c2c1` [7x, Diethyl (2-(3,4-difluorophenyl)-4-(p-tolyl)quinolin-6-yl)phosphonate]: the inhibition at 100 µM turned out to be 5%.
Consider `CCOP(=O)(OCC)c1cccc2c(-c3ccc(C)cc3)cc(-c3ccc(F)cc3)nc12` [7j, Diethyl (2-(4-fluorophenyl)-4-(p-tolyl)quinolin-8-yl)phosphonate], for which the inhibition at 100 µM worked out at 3%.

The next experiment deals with T1, human TOP1B (hTOP1B).
Assay: not given
The conditions noted are these: reaction time 15 seconds.
Regarding `CCOP(=O)(OCC)c1cccc2c(-c3ccc(F)cc3)cc(-c3ccc(F)c(F)c3)nc12` [7i, Diethyl (2-(3,4-difluorophenyl)-4-(4-fluorophenyl)quinolin-8-yl)phosphonate], the “% Inhibition hTOP1B 15 seconds (semiquantitative, Table S1)” value (“% Inhibition hTOP1B 15 seconds” below) is reported as “+”.
For `Cc1ccc(-c2cc(-c3ccc(F)c(F)c3)nc3c(P(=O)(OC(C)C)OC(C)C)cccc23)cc1` [7q, Diisopropyl (2-(3,4-difluorophenyl)-4-(p-tolyl)quinolin-8-yl)phosphonate], the “% Inhibition hTOP1B 15 seconds” value was “+”.
Consider `CC(C)OP(=O)(OC(C)C)c1cccc2c(-c3ccccc3)cc(-c3ccc(F)cc3)nc12` [7l, Diisopropyl (2-(4-fluorophenyl)-4-phenylquinolin-8-yl)phosphonate], for which the “% Inhibition hTOP1B 15 seconds” value is listed as “+”.
With `CC(C)OP(=O)(OC(C)C)c1cccc2c(-c3ccccc3)cc(-c3ccc(F)c(F)c3)nc12` [7m, Diisopropyl (2-(3,4-difluorophenyl)-4-phenylquinolin-8-yl)phosphonate], the “% Inhibition hTOP1B 15 seconds” value is on record as “+”.
Consider `CCOP(=O)(OCC)c1ccc2nc(-c3ccc(F)cc3)cc(-c3ccc(F)cc3)c2c1` [7t, Diethyl (2,4-bis(4-fluorophenyl)quinolin-6-yl)phosphonate], for which the “% Inhibition hTOP1B 15 seconds” value is recorded as “+”.

Staying with this experiment, now noted: reaction time 1 minute.
As for `CCOP(=O)(OCC)c1cccc2c(-c3ccc(F)cc3)cc(-c3ccc(F)c(F)c3)nc12` [7i, Diethyl (2-(3,4-difluorophenyl)-4-(4-fluorophenyl)quinolin-8-yl)phosphonate], the “% Inhibition hTOP1B 1 minute (semiquantitative, Table S1)” value (“% Inhibition hTOP1B 1 minute” below) is “+”.
In the case of `Cc1ccc(-c2cc(-c3ccc(F)c(F)c3)nc3c(P(=O)(OC(C)C)OC(C)C)cccc23)cc1` [7q, Diisopropyl (2-(3,4-difluorophenyl)-4-(p-tolyl)quinolin-8-yl)phosphonate], the “% Inhibition hTOP1B 1 minute” value was “+”.
For the compound `CC(C)OP(=O)(OC(C)C)c1cccc2c(-c3ccccc3)cc(-c3ccc(F)c(F)c3)nc12` [7m, Diisopropyl (2-(3,4-difluorophenyl)-4-phenylquinolin-8-yl)phosphonate], the “% Inhibition hTOP1B 1 minute” value is recorded as “+”.
As to `CCOP(=O)(OCC)c1ccc2nc(-c3ccc(F)cc3)cc(-c3ccc(F)cc3)c2c1` [7t, Diethyl (2,4-bis(4-fluorophenyl)quinolin-6-yl)phosphonate], the “% Inhibition hTOP1B 1 minute” value is on record as “+”.

Still in this experiment, the particulars now being: reaction time 3 minutes.
In the case of `CCOP(=O)(OCC)c1cccc2c(-c3ccc(F)cc3)cc(-c3ccc(F)c(F)c3)nc12` [7i, Diethyl (2-(3,4-difluorophenyl)-4-(4-fluorophenyl)quinolin-8-yl)phosphonate], the “% Inhibition hTOP1B 3 minutes (semiquantitative, Table S1)” value is “+”.
In the case of `CCOP(=O)(OCC)c1cccc2c(-c3ccccc3)cc(-c3ccc(F)cc3)nc12` [7b, Diethyl (4-Phenyl-2-(fluorophenyl)quinolin-8-il) phosphonate], the “% Inhibition hTOP1B 3 minutes (semiquantitative, Table S1)” value was “+”.

Source of the values: paper PMC8399847, “Hybrid Quinolinyl Phosphonates as Heterocyclic Carboxylate Isosteres: Synthesis and Biological Evaluation against Topoisomerase 1B (TOP1B)” (Pharmaceuticals, 2021).
